Test system: Molt-4 human acute lymphoblastic leukemia cell line
Test: Growth inhibition assay, ATPlite 1 step, 72 hours
Type: cell-based
Conditions: Molt-4 cells; for % Cell Viability at 50 nM: 50 nM ADC; for IC50: ATPlite 1 step, read-out: Molt4 IC50
Description: The activities of these ADCs were tested in growth inhibition assays in the Molt-4 human acute lymphoblastic leukemia cell line. Briefly, 5000 Molt-4 cells per well in 96-well plates were treated with ADCs in serial dilution for 72 hours. The number of viable cells was determined by the ATPlite 1 step reagent (PerkinElmer 6016739) as instructed by the manufacturer. Data was analyzed using Graphpad Prism software and IC50 values were reported as the concentration of ADC to achieve 50% inhibition of cell proliferation (Table 27).

| Molecule | % Cell Viability at 50 nM [%] | IC50 [nM] |
| --- | --- | --- |
| CD98 (CL-huAb102)-ZT (conjugate) heavy: EVQLVESGGGLVQPGGSLRLSCATSGFTFIDYYMSWVRQAPGKGLEWLGFIRNKANRYTTEYSASVKGRFTISRDNSKSILYLQMNSLKTEDTAVYYCTRDRPAWFVYWGQGTLVTVSSASTKGPSVFPLAPSSKSTSGGTAALGCLVKDYFPEPVTVSWNSGALTSGVHTFPAVLQSSGLYSLSSVVTVPSSSLGTQTYICNVNHKPSNTKVDKKV[skipping human IgG1 Fc with changes] light: DIVMTQTPLSLPVTPGEPASISCKSSQSLLYSSNQKNYLAWYLQKPGQSPQLLIYWASTRESGVPDRFSGSGSGTDFTLKISRVEAEDVGVYYCQQYYSYPYTFGGGTKVEIKRTVAAPSVFIFPPSDEQLKSGTASVVCLLNNFYPREAKVQWKVDNALQSGNSQESVTEQDSKDSTYSLSSTLTLSKADYEKHKVYACEVTHQGLSSPVTKSFNRGEC | 3.4 | 0.04 |
| CD98 (CL-huAb104)-ZT (conjugate) heavy: EVQLVESGGGLVQPGGSLRLSCATSGFTFIDYYMSWVRQAPGKGLEWLGFIRNKAYGYTTEYSASVKGRFTISRDNSKSILYLQMNSLKTEDTAVYYCTRDRPAWFVYWGQGTLVTVSSASTKGPSVFPLAPSSKSTSGGTAALGCLVKDYFPEPVTVSWNSGALTSGVHTFPAVLQSSGLYSLSSVVTVPSSSLGTQTYICNVNHKPSNTKVDKKV[skipping human IgG1 Fc with changes] light: DIVMTQTPLSLPVTPGEPASISCKSSQSLLYSSNQKNYLAWYLQKPGQSPQLLIYWASTRESGVPDRFSGSGSGTDFTLKISRVEAEDVGVYYCQQYYSYPYTFGGGTKVEIKRTVAAPSVFIFPPSDEQLKSGTASVVCLLNNFYPREAKVQWKVDNALQSGNSQESVTEQDSKDSTYSLSSTLTLSKADYEKHKVYACEVTHQGLSSPVTKSFNRGEC | 3.3 | 0.042 |
| CD98 (CL-huAb108)-ZT (conjugate) heavy: EVQLVQSGAEVKKPGASVKVSCKASGFTFSDYTMAWVRQAPGQGLEWVATIIYSGRGTYYRDAVKGRFTITRDNSTSTLYLELSSLRSEDTAVYYCARQSDDTYYYWGYFDYWGQGTMVTVSSASTKGPSVFPLAPSSKSTSGGTAALGCLVKDYFPEPVTVSWNSGALTSGVHTFPAVLQSSGLYSLSSVVTVPSSSLGTQTYICNVNHKPSNTKVDKKV[skipping human IgG1 Fc with changes] light: DIVMTQTPLSLPVTPGEPASINCKSSQSLLFSGNQKNYLAWYLQKPGQSPQLLIYWASTRQSGVPDRFSGSGSGTDFTLKISRVEAEDVGIYYCQQYYDVPYTFGQGTKLEIKRTVAAPSVFIFPPSDEQLKSGTASVVCLLNNFYPREAKVQWKVDNALQSGNSQESVTEQDSKDSTYSLSSTLTLSKADYEKHKVYACEVTHQGLSSPVTKSFNRGEC | 4.5 | 0.144 |
| CD98 (CL-huAb110)-ZT (conjugate) heavy: EVQLVQSGAEVKKPGASVKVSCKASGFTFSDYTMAWVRQAPGQGLEWVATIIYDARGTYYRDAVKGRFTITRDNSTSTLYLELSSLRSEDTAVYYCARQSDDTYYYWGYFDYWGQGTMVTVSSASTKGPSVFPLAPSSKSTSGGTAALGCLVKDYFPEPVTVSWNSGALTSGVHTFPAVLQSSGLYSLSSVVTVPSSSLGTQTYICNVNHKPSNTKVDKKV[skipping human IgG1 Fc with changes] light: DIVMTQTPLSLPVTPGEPASINCKSSQSLLFSGNQKNYLAWYLQKPGQSPQLLIYWASTRQSGVPDRFSGSGSGTDFTLKISRVEAEDVGIYYCQQYYSSPYTFGQGTKLEIKRTVAAPSVFIFPPSDEQLKSGTASVVCLLNNFYPREAKVQWKVDNALQSGNSQESVTEQDSKDSTYSLSSTLTLSKADYEKHKVYACEVTHQGLSSPVTKSFNRGEC | 3.5 | 0.156 |
| CD98 (CL-huAb102)-ZZ (conjugate) heavy: EVQLVESGGGLVQPGGSLRLSCATSGFTFIDYYMSWVRQAPGKGLEWLGFIRNKANRYTTEYSASVKGRFTISRDNSKSILYLQMNSLKTEDTAVYYCTRDRPAWFVYWGQGTLVTVSSASTKGPSVFPLAPSSKSTSGGTAALGCLVKDYFPEPVTVSWNSGALTSGVHTFPAVLQSSGLYSLSSVVTVPSSSLGTQTYICNVNHKPSNTKVDKKV[skipping human IgG1 Fc with changes] light: DIVMTQTPLSLPVTPGEPASISCKSSQSLLYSSNQKNYLAWYLQKPGQSPQLLIYWASTRESGVPDRFSGSGSGTDFTLKISRVEAEDVGVYYCQQYYSYPYTFGGGTKVEIKRTVAAPSVFIFPPSDEQLKSGTASVVCLLNNFYPREAKVQWKVDNALQSGNSQESVTEQDSKDSTYSLSSTLTLSKADYEKHKVYACEVTHQGLSSPVTKSFNRGEC | 6.3 | 0.072 |
| CD98 (CL-huAb104)-ZZ (conjugate) heavy: EVQLVESGGGLVQPGGSLRLSCATSGFTFIDYYMSWVRQAPGKGLEWLGFIRNKAYGYTTEYSASVKGRFTISRDNSKSILYLQMNSLKTEDTAVYYCTRDRPAWFVYWGQGTLVTVSSASTKGPSVFPLAPSSKSTSGGTAALGCLVKDYFPEPVTVSWNSGALTSGVHTFPAVLQSSGLYSLSSVVTVPSSSLGTQTYICNVNHKPSNTKVDKKV[skipping human IgG1 Fc with changes] light: DIVMTQTPLSLPVTPGEPASISCKSSQSLLYSSNQKNYLAWYLQKPGQSPQLLIYWASTRESGVPDRFSGSGSGTDFTLKISRVEAEDVGVYYCQQYYSYPYTFGGGTKVEIKRTVAAPSVFIFPPSDEQLKSGTASVVCLLNNFYPREAKVQWKVDNALQSGNSQESVTEQDSKDSTYSLSSTLTLSKADYEKHKVYACEVTHQGLSSPVTKSFNRGEC | 6.5 | 0.061 |
| CD98 (CL-huAb108-ZZ (conjugate) heavy: EVQLVQSGAEVKKPGASVKVSCKASGFTFSDYTMAWVRQAPGQGLEWVATIIYSGRGTYYRDAVKGRFTITRDNSTSTLYLELSSLRSEDTAVYYCARQSDDTYYYWGYFDYWGQGTMVTVSSASTKGPSVFPLAPSSKSTSGGTAALGCLVKDYFPEPVTVSWNSGALTSGVHTFPAVLQSSGLYSLSSVVTVPSSSLGTQTYICNVNHKPSNTKVDKKV[skipping human IgG1 Fc with changes] light: DIVMTQTPLSLPVTPGEPASINCKSSQSLLFSGNQKNYLAWYLQKPGQSPQLLIYWASTRQSGVPDRFSGSGSGTDFTLKISRVEAEDVGIYYCQQYYDVPYTFGQGTKLEIKRTVAAPSVFIFPPSDEQLKSGTASVVCLLNNFYPREAKVQWKVDNALQSGNSQESVTEQDSKDSTYSLSSTLTLSKADYEKHKVYACEVTHQGLSSPVTKSFNRGEC | 5.8 | 0.199 |
| CD98 (CL-huAb110)-ZZ (conjugate) heavy: EVQLVQSGAEVKKPGASVKVSCKASGFTFSDYTMAWVRQAPGQGLEWVATIIYDARGTYYRDAVKGRFTITRDNSTSTLYLELSSLRSEDTAVYYCARQSDDTYYYWGYFDYWGQGTMVTVSSASTKGPSVFPLAPSSKSTSGGTAALGCLVKDYFPEPVTVSWNSGALTSGVHTFPAVLQSSGLYSLSSVVTVPSSSLGTQTYICNVNHKPSNTKVDKKV[skipping human IgG1 Fc with changes] light: DIVMTQTPLSLPVTPGEPASINCKSSQSLLFSGNQKNYLAWYLQKPGQSPQLLIYWASTRQSGVPDRFSGSGSGTDFTLKISRVEAEDVGIYYCQQYYSSPYTFGQGTKLEIKRTVAAPSVFIFPPSDEQLKSGTASVVCLLNNFYPREAKVQWKVDNALQSGNSQESVTEQDSKDSTYSLSSTLTLSKADYEKHKVYACEVTHQGLSSPVTKSFNRGEC | 4.3 | 0.252 |
| CD98 (CL-huAb102)-XW (conjugate) heavy: EVQLVESGGGLVQPGGSLRLSCATSGFTFIDYYMSWVRQAPGKGLEWLGFIRNKANRYTTEYSASVKGRFTISRDNSKSILYLQMNSLKTEDTAVYYCTRDRPAWFVYWGQGTLVTVSSASTKGPSVFPLAPSSKSTSGGTAALGCLVKDYFPEPVTVSWNSGALTSGVHTFPAVLQSSGLYSLSSVVTVPSSSLGTQTYICNVNHKPSNTKVDKKV[skipping human IgG1 Fc with changes] light: DIVMTQTPLSLPVTPGEPASISCKSSQSLLYSSNQKNYLAWYLQKPGQSPQLLIYWASTRESGVPDRFSGSGSGTDFTLKISRVEAEDVGVYYCQQYYSYPYTFGGGTKVEIKRTVAAPSVFIFPPSDEQLKSGTASVVCLLNNFYPREAKVQWKVDNALQSGNSQESVTEQDSKDSTYSLSSTLTLSKADYEKHKVYACEVTHQGLSSPVTKSFNRGEC | 32.0 | 0.074 |
| CD98 (CL-huAb104)-XW (conjugate) heavy: EVQLVESGGGLVQPGGSLRLSCATSGFTFIDYYMSWVRQAPGKGLEWLGFIRNKAYGYTTEYSASVKGRFTISRDNSKSILYLQMNSLKTEDTAVYYCTRDRPAWFVYWGQGTLVTVSSASTKGPSVFPLAPSSKSTSGGTAALGCLVKDYFPEPVTVSWNSGALTSGVHTFPAVLQSSGLYSLSSVVTVPSSSLGTQTYICNVNHKPSNTKVDKKV[skipping human IgG1 Fc with changes] light: DIVMTQTPLSLPVTPGEPASISCKSSQSLLYSSNQKNYLAWYLQKPGQSPQLLIYWASTRESGVPDRFSGSGSGTDFTLKISRVEAEDVGVYYCQQYYSYPYTFGGGTKVEIKRTVAAPSVFIFPPSDEQLKSGTASVVCLLNNFYPREAKVQWKVDNALQSGNSQESVTEQDSKDSTYSLSSTLTLSKADYEKHKVYACEVTHQGLSSPVTKSFNRGEC | 31.1 | 0.102 |
| CD98 (CL-huAb108)-XW (conjugate) heavy: EVQLVQSGAEVKKPGASVKVSCKASGFTFSDYTMAWVRQAPGQGLEWVATIIYSGRGTYYRDAVKGRFTITRDNSTSTLYLELSSLRSEDTAVYYCARQSDDTYYYWGYFDYWGQGTMVTVSSASTKGPSVFPLAPSSKSTSGGTAALGCLVKDYFPEPVTVSWNSGALTSGVHTFPAVLQSSGLYSLSSVVTVPSSSLGTQTYICNVNHKPSNTKVDKKV[skipping human IgG1 Fc with changes] light: DIVMTQTPLSLPVTPGEPASINCKSSQSLLFSGNQKNYLAWYLQKPGQSPQLLIYWASTRQSGVPDRFSGSGSGTDFTLKISRVEAEDVGIYYCQQYYDVPYTFGQGTKLEIKRTVAAPSVFIFPPSDEQLKSGTASVVCLLNNFYPREAKVQWKVDNALQSGNSQESVTEQDSKDSTYSLSSTLTLSKADYEKHKVYACEVTHQGLSSPVTKSFNRGEC | 20.9 | 0.281 |

Reference: patent US20200002432A1, “ANTI-CD98 ANTIBODIES AND ANTIBODY DRUG CONJUGATES” (AbbVie Inc., priority 2016, published 2020)
